The text below walks through data of publication PMC7819943, “Rice protein-binding microarrays: a tool to detect cis-acting elements near promoter regions in rice”.

The other results are listed elsewhere or left out.

This experiment concerns the target T1, OsWOX13 (Oryza sativa, UniProt Q5QMM3 1-267).
T1 sequence: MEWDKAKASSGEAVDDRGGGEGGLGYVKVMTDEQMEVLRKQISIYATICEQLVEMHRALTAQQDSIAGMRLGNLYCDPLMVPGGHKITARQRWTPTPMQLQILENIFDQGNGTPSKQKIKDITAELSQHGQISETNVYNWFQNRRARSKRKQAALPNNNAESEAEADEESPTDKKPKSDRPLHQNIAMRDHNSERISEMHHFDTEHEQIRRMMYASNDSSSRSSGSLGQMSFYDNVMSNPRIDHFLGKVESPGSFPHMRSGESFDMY
In words: protein-binding microarray (RPBM); PBS, 2% BSA, 51.3 ng/ul salmon testes DNA, 50 uM zinc acetate, 200 nM TF, 25 C, 1 h; high values mean tight binding. To be noted: protein: recombinant; tags: N-terminal polyhistidine and DsRed monomer fusion (pET32a); label: CyDye5-dUTP incorporated in the synthesized complementary strand; 3' TTTTT single-stranded linker to array surface; dsDNA, one strand shown. The essentials: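 The binding signal is fluorescence intensity per array feature (arbitrary units). Readings came from an Axon 4000B scanner after a washed, 2% BSA-blocked, double-stranded custom Agilent array had been incubated for 1 h at 25 °C with 200 nM protein and 50 µM zinc acetate. The protein was a Ni–NTA-purified transcription factor fused N-terminally to polyhistidine and DsRed, expressed in E. coli BL21-CodonPlus.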
On to “ATAGATTACATAGACCCCGGGTGTATATATTTATACCCATCGGAGTCACCTAGTGCAG”, for which the binding signal was 4280 fluorescence intensity (a.u.).

With “GAAAACAATAACTGCGTTAACCTCGCATTTCTGTACTACGCGGAGTCACCTAGTGCAG”, the binding signal was 3630 fluorescence intensity (a.u.).

On to “CATATTAATTGTTAAAGTTGTCATCATCCAAATTGTTATACGGAGTCACCTAGTGCAG”, for which the binding signal is 11100 fluorescence intensity (a.u.).

As for “TAAGGCAGAAAACCAAGGCCTTGACATTTCTTTTAGGACACGGAGTCACCTAGTGCAG”, the binding signal is 65000 fluorescence intensity (a.u.).

As to “GTTTGATCTATTATTTGCAAATCTTGTCAGTTGTAGGATTCGGAGTCACCTAGTGCAG”, the binding signal was 5640 fluorescence intensity (a.u.).

With “ACTATAATTTGCTTTGTTTATTTCCTATGATGGTATTAAACGGAGTCACCTAGTGCAG”, the binding signal was 10300 fluorescence intensity (a.u.).

As to “AATAATTACTTAAATTTCTTGAATAAGACGAACGGTCAAACGGAGTCACCTAGTGCAG”, the binding signal is 29400 fluorescence intensity (a.u.).

Consider “ATTAATTATTTTCGTATCATTTGATTTATGTATACATATACGGAGTCACCTAGTGCAG”, for which the binding signal was 9560 fluorescence intensity (a.u.).

“AAATTTAGCAATTAATAAATGGGCACATACCGTCCATAAACGGAGTCACCTAGTGCAG”: the binding signal is 4240 fluorescence intensity (a.u.).

For “GAAATTATTTGAAATTTTGACTGATTTTGAATGAATTTGACGGAGTCACCTAGTGCAG”, the binding signal is 15200 fluorescence intensity (a.u.).

Regarding “AGCTAGGTCAATCATGCATGCATGAATATGTGGCCGAGTTCGGAGTCACCTAGTGCAG”, the binding signal is 3270 fluorescence intensity (a.u.).

Take “CTGATCAATTAGTACTTTACTTCCTTTATTATTCTTTCCTCGGAGTCACCTAGTGCAG”: the binding signal is 17200 fluorescence intensity (a.u.).

Regarding “CAATGTAATTACACTACGATTGTGCTATAATTACATTTGTCGGAGTCACCTAGTGCAG”, the binding signal is 18300 fluorescence intensity (a.u.).

For “GTGGATAATTAGCGGTAGCTTTTGTCCATTCATGTCTTGGCGGAGTCACCTAGTGCAG”, the binding signal was 26200 fluorescence intensity (a.u.).

For the sequence “CTCCAAATTAGTATCCAAACATCCGATGTGACATGGACTTCGGAGTCACCTAGTGCAG”, the binding signal is 8670 fluorescence intensity (a.u.).

Regarding “AGTAATTATATTTTACGACGGAGGAAGAACTAGTAGCTAACGGAGTCACCTAGTGCAG”, the binding signal is 6930 fluorescence intensity (a.u.).

In the case of “CCACCAGATAATCAATCGCATTTTAACGTATCGCATCCCCCGGAGTCACCTAGTGCAG”, the binding signal was 8580 fluorescence intensity (a.u.).

Turning to “ATAAGTGCAAATCAACTTAAACAAATGAGGCATCAGAGCACGGAGTCACCTAGTGCAG”, the binding signal is 3420 fluorescence intensity (a.u.).

“AAATCTCATCACAATTTACAATTAGTTAACCACTATACTGCGGAGTCACCTAGTGCAG”: the binding signal was 6310 fluorescence intensity (a.u.).

Consider “AGCAAAATAAATTGCACTCAGTTGTTTGTGGTAGCGCTCTCGGAGTCACCTAGTGCAG”, for which the binding signal is 6860 fluorescence intensity (a.u.).

Take “AACTAATTACATAGTTTGCATGAAAATCGCGAGACAAATCCGGAGTCACCTAGTGCAG”: the binding signal is 13700 fluorescence intensity (a.u.).

In the case of “GTATAACTAATTAAACATGACTGCCAGCTGAAACATTATCCGGAGTCACCTAGTGCAG”, the binding signal is 19600 fluorescence intensity (a.u.).

For “TACATATAGATAGACTGATTGATTGCTTGGCACTGTTAGCCGGAGTCACCTAGTGCAG”, the binding signal is 39400 fluorescence intensity (a.u.).

As for “ATATATAACTTTGACAATTACTATTATATACATGCTCCTTCGGAGTCACCTAGTGCAG”, the binding signal is 4800 fluorescence intensity (a.u.).

“TGGGACTGATGGAATAATAATTTTAAATGAAAGTCAACATCGGAGTCACCTAGTGCAG”: the binding signal is 21300 fluorescence intensity (a.u.).

As for “CATAATTATCCCATATTCTTATATCTCTATTCTATGCATTCGGAGTCACCTAGTGCAG”, the binding signal is 33200 fluorescence intensity (a.u.).

As for “AAGGATTAGATATGATTCAATCTTTTGGTTCAAAGTTCTTCGGAGTCACCTAGTGCAG”, the binding signal is 6590 fluorescence intensity (a.u.).

For the sequence “CCACAATTTAGATAAATATCAATACAATTTATCTATTCGTCGGAGTCACCTAGTGCAG”, the binding signal was 4110 fluorescence intensity (a.u.).

As for “TAATCAATTAAGAAATTAATTAATCCTTTGCTCCCTGATTCGGAGTCACCTAGTGCAG”, the binding signal is 54400 fluorescence intensity (a.u.).

With “TTAGATACTGGACATGATTGATAAATTGCTGCTCTGCACGCGGAGTCACCTAGTGCAG”, the binding signal is 49500 fluorescence intensity (a.u.).

Regarding “TGATTAATTAACCGAAAAGTGTGTAAAGCAAATGTTTTGGCGGAGTCACCTAGTGCAG”, the binding signal was 15200 fluorescence intensity (a.u.).

In the case of “GACTAAATTTGTCCGACTTTAGAACAACCTTAACGCCGTGCGGAGTCACCTAGTGCAG”, the binding signal is 6420 fluorescence intensity (a.u.).

Turning to “TGGGCCAAATTGATTTATGGTCTGAATTCACTGATGGAAACGGAGTCACCTAGTGCAG”, the binding signal is 24900 fluorescence intensity (a.u.).

In the case of “AGCTTATAGATTATAATAATCTACTTGTTTGTTCCAGTTTCGGAGTCACCTAGTGCAG”, the binding signal was 11500 fluorescence intensity (a.u.).

For “CATTCTTGCAATTCAACTATTGATTGTTTGATCTTATGGACGGAGTCACCTAGTGCAG”, the binding signal was 11900 fluorescence intensity (a.u.).

On to “GATTAATGATAAATATGTGTTTAAAGTTAACGGTGTAATACGGAGTCACCTAGTGCAG”, for which the binding signal is 7190 fluorescence intensity (a.u.).

Take “ACACTGATTAATGCATATGCTAGATTGGGGATGATGGATACGGAGTCACCTAGTGCAG”: the binding signal is 36000 fluorescence intensity (a.u.).

In the case of “GGTGAATTTGACAATGTGATGGCAGGAAATGACATGCCGTCGGAGTCACCTAGTGCAG”, the binding signal is 7860 fluorescence intensity (a.u.).

Turning to “CGAAAGTCTCAGTGCAATCAAATTTGTGCAATCATAAATGCGGAGTCACCTAGTGCAG”, the binding signal was 3440 fluorescence intensity (a.u.).

Consider “TATCCCAAATTATGATGATCTCGTTTGGTATAATTATGCTCGGAGTCACCTAGTGCAG”, for which the binding signal is 6200 fluorescence intensity (a.u.).

In the case of “GGCTAACTGGATGACGATGATATATTATTATTATGGAAGCCGGAGTCACCTAGTGCAG”, the binding signal was 25600 fluorescence intensity (a.u.).

Turning to “GGAATCAAATTAAAATTTCAGGGGTATAGAAGGGATCGGGCGGAGTCACCTAGTGCAG”, the binding signal is 3790 fluorescence intensity (a.u.).

Regarding “TAAATTATTTAATTAGTAACTGGACTAAAATATATATTTCCGGAGTCACCTAGTGCAG”, the binding signal is 3380 fluorescence intensity (a.u.).

Take “ACTAACTTGACCAATCAAGCGTATAAATAGTAACTACTACCGGAGTCACCTAGTGCAG”: the binding signal is 31000 fluorescence intensity (a.u.).

On to “TGAGGTAAATTTCTCAATCCTTTTGAAACGCAAAATAACACGGAGTCACCTAGTGCAG”, for which the binding signal was 3350 fluorescence intensity (a.u.).

With “GAGGTAATTAGTAAGAAACTAATAATTGTAGTAATCCAAGCGGAGTCACCTAGTGCAG”, the binding signal is 25400 fluorescence intensity (a.u.).

For “TTTCCATCCAATCACAACCCTCCACCATTAACTTTTCCCACGGAGTCACCTAGTGCAG”, the binding signal was 6250 fluorescence intensity (a.u.).

With “AGGATTGAATATTCCTGTAATTTCCCTTTACAAATCCTCTCGGAGTCACCTAGTGCAG”, the binding signal is 9300 fluorescence intensity (a.u.).

For “AGTTGATTATATGTGATTTAGAGCTAGTAGCTTGCTGTACCGGAGTCACCTAGTGCAG”, the binding signal was 51500 fluorescence intensity (a.u.).

On to “AACGTTGATTTGTTGATAGAGTATGGTTATTGATGCCCCTCGGAGTCACCTAGTGCAG”, for which the binding signal is 47500 fluorescence intensity (a.u.).

Take “CACTTAATCAATAATCATTAGTTCAGTACTGAAAGTCTGACGGAGTCACCTAGTGCAG”: the binding signal is 15900 fluorescence intensity (a.u.).

Turning to “CTCGTTTTCAAATTAATAGATGTGGTTGACTAAGTAGAAACGGAGTCACCTAGTGCAG”, the binding signal was 5680 fluorescence intensity (a.u.).

In the case of “AAAATTGAGGGATTCATACCAGCTTCGCTTGCTAATGCGTCGGAGTCACCTAGTGCAG”, the binding signal was 3660 fluorescence intensity (a.u.).

As for “CATCTTAATTTAATTATGTATATTATACATGAAATTAGATCGGAGTCACCTAGTGCAG”, the binding signal is 16900 fluorescence intensity (a.u.).
